In PubChem BioAssay (NCI):
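The compound was tested at five concentrations on cells cultured in 96-well plates, with a 48-hour exposure period. At the GI50, growth is halved.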 Not every entry of the source has a single result; some have several. This is not the full list of results. An entry can have further records. For some of these results: The tests behind the records often covered other concentration ranges, not given here; a value can be the end of its range. For some of these results: Values given together are repeated measurements in other runs, samples, wells, individuals or studies. Marks in square brackets tell the records apart. A, B and so on number the origins entry by entry.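 TGI denotes the concentration required for complete inhibition of growth.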

What was measured:
Experiment in all cases: NCI tumour cell line growth inhibition, 48 h
SK-MEL-5 melanoma = test system: SK-MEL-5 melanoma
RPMI-8226 leukemia = test system: RPMI-8226 leukemia
A549 NSCLC = test system: A549 NSCLC
DU-145 prostate = test system: DU-145 prostate
RXF 393 renal = test system: RXF 393 renal
K-562 leukemia = test system: K-562 leukemia
MDA-MB-231 breast = test system: MDA-MB-231 breast
KM20L2 colon = test system: KM20L2 colon
LXFL 529 NSCLC = test system: LXFL 529 NSCLC
COLO 205 colon = test system: COLO 205 colon

CC1(C)[C@H](O)[C@H](F)C[C@@]2(C)Oc3ccc(C(=O)Nc4ccc5c(c4)NC(=O)C54CCN(CCCCC#N)CC4)cc3C[C@H]12
GI50 (SK-MEL-5 melanoma): 1.43 µM and 83.7 nM | TGI (RPMI-8226 leukemia): 10.3 nM and 1.28 µM | GI50 (A549 NSCLC): 1.22 µM and 46.6 nM | GI50 (DU-145 prostate): 1.17 µM and 112 nM | TGI (RXF 393 renal): 72.1 nM and 1.43 µM

N#CCNC(=O)c1ccc(-c2ccnc(Nc3ccc(N4CCOCC4)cc3)n2)cc1
GI50 (K-562 leukemia): 19.7 nM [sample A, 1 test] and 5.53 µM [sample B, mean of 2 tests]

O=c1[nH]c2ccccc2n1C1CCN(CCCC(c2ccc(F)cc2)c2ccc(F)cc2)CC1
TGI (MDA-MB-231 breast): 27.2 µM [sample A, mean of 2 tests] and 2.69 µM [sample B, 1 test]

C/C(=N\NC(=S)N1CCN(c2ccccn2)CC1)c1ncccn1
TGI (KM20L2 colon): 139 nM and 30.6 µM | TGI (LXFL 529 NSCLC): 897 nM and 12.2 µM | TGI (COLO 205 colon): 156 nM and 16.6 µM
